PubChem BioAssay AID1345082 (National Center for Advancing Translational Sciences (NCATS), 2018)
The whole screen tested about 94,000 compounds, of which about 4,000 (4.3%) were called active. Inconclusive means that the source gave no clear call. Such entries were picked first, then a sample of the others. Calls come from the whole dose curve; as a rule, active = well fitted inhibition curve with a large enough effect; inconclusive = small, poorly fitted or top-dose-only effect; inactive = no such curve, though single readings can be large or run the other way. Where the call is inconclusive, the potency comes from a doubtful curve fit.
% is set by controls: 0 for no effect and ±100 for the full control effect; potency is the fitted concentration of half-maximal effect; tags give direction and shape of the fitted curve.

Assay: Cytotoxic Profiling in NIH 3T3 Cell Line of Diverse Libraries Using Quantitative High-Throughput Screening; note: nearly all actives have a fitted effect of over 55% in size
Details: NIH 3T3 viability, CellTiter-Glo ATP luminescence, 48-72 h; activity change, negative = cytotoxicity: at 96.7 µM (top of the series); series mostly up to 96.7 µM
How it was run: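 Cytotoxicity was measured by CellTiter-Glo ATP luminescence after 48 or 72 h compound exposure at 37 °C. Mouse NIH 3T3 fibroblasts were seeded at 400 cells/well and dosed by 23 nL pin transfer.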
In the case of `O=C(c1ccco1)N1CCN(C2CCC3(CCNCC3)CC2)CC1`, the “activity change, negative = cytotoxicity” value is reported as inactive: -11.5%. For `CNC1=C(c2ccc(F)cc2)C(=O)N(Cc2ccccc2)C1`, the Potency was inconclusive: 39.8 µM [inhibitor, partial curve, poor fit]. For `Cc1ccc(Nc2ccnc(N3CCC(C(=O)Nc4ccccc4F)CC3)n2)cc1`, the Potency was inconclusive: 44.7 µM [inhibitor, partial curve, poor fit]. In the case of `CCNC(=O)N1Cc2[nH]cnc2C[C@H]1c1nc(-c2ccc(F)c(Cl)c2)no1`, the Potency is reported as inconclusive: 112 µM [inhibitor, partial curve, poor fit]. For `CC(=O)Nc1ccc(CN(C)C(C)c2cccs2)cc1` (stereo not drawn), the “activity change, negative = cytotoxicity” value was inactive: -14.8% [at 138 µM]. For `C[S+](=O)([O-])N1CCNc2cnc(Nc3cccc(C(F)(F)F)c3)nc2C1`, the Potency was inconclusive: 89.1 µM [inhibitor, single point]. In the case of `CCNC(=O)[C@@H]1C[C@H](NC(=O)CCc2ccccc2)CN1Cc1cnc[nH]1`, the “outcome” value is reported as “inactive”. In the case of `N[C@H]1CCN2C(=O)c3cc(-c4ccc(F)cc4F)ccc3NC(=O)[C@H]12`, the Potency is reported as active: 112 µM. For `O=C(COc1ccccc1)N1CCN(C(=O)c2nnn3c2COC(c2ccccc2)C3)CC1` (stereo not drawn), the Potency was inconclusive: 70.8 µM [inhibitor, partial curve, poor fit]. With `Cc1ccc(C(=O)N2CCCC3(C2)NC(=O)N(Cc2cccc(Cl)c2)C3=O)cc1F` (stereo not drawn) the Potency was inconclusive: 70.8 µM [inhibitor, single point]. In the case of `CC1=C[C@@H](CN2CCN(c3ccccn3)CC2)[C@H](C(C)C)C[C@H]1Cc1nnc(-c2ccccc2)o1`, the Potency is reported as inconclusive: 50.1 µM [inhibitor, partial curve, poor fit]. For `CN1CCN(c2ccc3ncc(Nc4ccc(F)cc4)n3n2)CC1`, the Potency was active: 100 µM. In the case of `O=C(C1CCCC1)N1CCc2nc(C3CC3)nc(-c3ccc(O)cc3)c2C1`, the Potency is reported as inconclusive: 17.8 µM [inhibitor, full curve, poor fit]. With `CCOc1ccc(CC(=O)N2CCC3(CC2)N=C(c2ccc(C)cc2)NO3)cc1` the “activity change, negative = cytotoxicity” value was inactive: -3.44%. In the case of `CCC1Oc2ccc(NC(=O)Nc3cccc(OC)c3)cc2CN(Cc2ccc3c(c2)OCO3)C1=O` (stereo not drawn), the Potency is reported as inconclusive: 28.2 µM [inhibitor, full curve]. For `COC[C@H]1C[C@@H](NC(=O)Nc2ccc3c(c2)OCCO3)[C@H](O)[C@@H]1O`, the “outcome” value was “inactive [at 138 µM]”. With `Cc1cccc(-c2nc3cc(C(=O)NCc4cccs4)ccc3o2)n1` the Potency was inconclusive: 39.8 µM [inhibitor, partial curve, poor fit]. With `Cc1cc(C)n(CCC(=O)NCC23CCCC=C2NC(=O)CC3)n1` (stereo not drawn) the “activity change, negative = cytotoxicity” value was inactive: -19.1%. In the case of `Cc1ccc(CN2CCCN(Cc3ccncc3)C(c3ccccc3)CC(=O)NCC2)s1` (stereo not drawn), the Potency is reported as inconclusive: 50.1 µM [inhibitor, partial curve, poor fit]. With `CN(Cc1cccnc1)c1nc2c(c(=O)[nH]1)CCN(Cc1cc(F)cc(F)c1)CC2` the “activity change, negative = cytotoxicity” value was inactive: -4.69%. In the case of `COc1ccc(CC(=O)NCCNC(=O)c2ccc(-c3cccc(OC)c3)cc2)cc1`, the “activity change, negative = cytotoxicity” value is reported as inactive: -19.9%. With `Cc1ccc(Cn2c(C3CCN(C(=O)Cc4cccs4)CC3)n[nH]c2=O)cc1` the Potency was inconclusive: 50.1 µM [inhibitor, single point]. In the case of `O=c1n(-c2ccncc2)nc2n1CCN(Cc1ccc(OC(F)(F)F)cc1)C2`, the Potency is reported as inconclusive: 25.1 µM [inhibitor, partial curve, poor fit]. In the case of `CCOC(=O)[C@@H]1[C@@H](O)C(=O)N(Cc2ccccc2)C12CCN(C(=O)Cc1ccc(OC)cc1)CC2`, the Potency is reported as inconclusive: 70.8 µM [inhibitor, single point]. With `CC(C)(C)CN1CC(NS(=O)(=O)c2cccc(Cl)c2)CC1=O` (stereo not drawn) the Potency was inconclusive: 31.6 µM [inhibitor, partial curve, poor fit]. In the case of `CC(=O)Nc1ccc(C2(C(=O)N3CCN(c4ccccc4)CC3)CCCCC2)cc1`, the Potency is reported as inconclusive: 50.1 µM [inhibitor, partial curve, poor fit]. For `CCn1cc(-c2ccc(Cl)cc2)cc1C(=O)NCC(=O)OC`, the Potency was inconclusive: 44.7 µM [inhibitor, partial curve, poor fit]. In the case of `O=C(c1ccc(Cl)cc1)N1CC2(CCN(Cc3ccccn3)C2)Cc2ccccc21` (stereo not drawn), the Potency is reported as inconclusive: 44.7 µM [inhibitor, partial curve, poor fit]. For `O=C(c1cc(-c2ccc(F)cc2)nc2ccccc12)N1CCC(c2nc(C3CCOCC3)no2)C1` (stereo not drawn), the Potency was inconclusive: 44.7 µM [inhibitor, partial curve, poor fit]. For `C=CCOc1c(OC)ccc2c1CN(CCOC)C(=O)CCN2CC(O)COc1ccc(OC)cc1` (stereo not drawn), the Potency was inconclusive: 44.7 µM [inhibitor, partial curve, poor fit]. For `O=C(c1ccc2nnc(-c3cncc(Cl)c3)n2c1)N1CCC(c2ccccc2)CC1`, the Potency was inconclusive: 44.7 µM [inhibitor, partial curve, poor fit]. In the case of `CCc1cccc(NC(=O)[C@@H]2COCC(=O)N2Cc2ccc(OC)cc2OC)c1`, the Potency is reported as inconclusive: 50.1 µM [inhibitor, partial curve, poor fit]. In the case of `CC(C(=O)NCCc1ccccc1)N1C(=O)COc2ccc(C(=O)COc3ccc(Cl)cc3)cc21` (stereo not drawn), the Potency is reported as inconclusive: 44.7 µM [inhibitor, partial curve, poor fit]. For `Cc1cccc(NC(=O)N2CCc3c(c4ccccc4n3C)C2)c1C`, the Potency was inconclusive: 35.5 µM [inhibitor, partial curve]. For `Cc1ccc2oc([C@H]3CCN(Cc4cccs4)C3)nc2c1`, the Potency was inconclusive: 112 µM [inhibitor, partial curve]. With `Cc1ccc2oc([C@H]3CCN(Cc4ccc(C(F)(F)F)cc4)C3)nc2c1` the Potency was inconclusive: 112 µM [inhibitor, partial curve, poor fit]. With `Fc1ccccc1CN1CCOC[C@H]1c1ncc(-c2cccc(Cl)c2)[nH]1` the Potency was active: 79.4 µM. For `CNC(=O)c1cc(C2CC2)nc2c1c(C1CCN(C(=O)c3cccnc3)CC1)nn2C`, the “activity change, negative = cytotoxicity” value was inactive: -2.37%. With `CCCN(C)c1nccnc1OC1CCN(C(=O)c2ccc(F)cc2)C1` (stereo not drawn) the “activity change, negative = cytotoxicity” value was inactive: -13.5%. For `Cc1ccc(Nc2ccnc(N3CCCC3C(=O)N3CCN(C)CC3)n2)cc1` (stereo not drawn), the “activity change, negative = cytotoxicity” value was inactive: -25.6%. With `CN1CC(=O)N(C2CCCC2)Cc2c(NCCc3ccc(Cl)cc3)ncnc21` the Potency was inconclusive: 39.8 µM [inhibitor, partial curve, poor fit]. In the case of `O=C(Nc1cc(-c2ccncc2)nn1-c1ccccc1)c1ccccc1F`, the Potency is reported as inconclusive: 44.7 µM [inhibitor, partial curve, poor fit]. In the case of `CC(C)CCN1C(=O)N(CCCc2ccncc2)C(=O)C12CCN(Cc1ccc(F)cc1)CC2`, the “activity change, negative = cytotoxicity” value is reported as inactive: -21.7%. With `COc1ccc(Nc2cnc3ccc(-c4cccc(CO)c4)nn23)cn1` the Potency was inconclusive: 79.4 µM [inhibitor, partial curve, poor fit]. In the case of `CCC1(CC)CC1C(=O)N1CCC2(CC1)Nc1ccccc1NC2=O` (stereo not drawn), the Potency is reported as inconclusive: 7.94 µM [inhibitor, full curve, poor fit]. In the case of `COc1ccc(-c2noc(-c3cccn3CC(=O)Nc3cc(Cl)c(OC)cc3OC)n2)cc1F`, the Potency is reported as inconclusive: 5.62 µM [inhibitor, full curve]. In the case of `COc1ccc(-c2noc([C@@H]3CCCN3C(=O)COc3ccc(C)cc3)n2)cc1`, the Potency is reported as inconclusive: 70.8 µM [inhibitor, single point]. For `CCOC(=O)CNC(=O)N1CCC(N2C(=O)C(OCC3CC3)C23CCCCC3)CC1` (stereo not drawn), the “activity change, negative = cytotoxicity” value was inactive: -22.2%. For `O=C(NCc1cccc(C(F)(F)F)c1)c1cn2cc(-c3ccc(F)cc3)sc2n1`, the Potency was active: 39.8 µM. In the case of `CC(C)c1noc(-c2cccn3c(CNC(=O)c4cc(F)ccc4Cl)nnc23)n1`, the “outcome” value is reported as “inactive”. For `O=C1CCN(C(=O)c2cccs2)[C@@H]2c3ccccc3OC[C@@H]2CN1CCO`, the Potency was inconclusive: 56.2 µM [inhibitor, partial curve, poor fit]. With `O=C(NCc1ccccc1)c1ccc2nnc(-c3ccoc3)n2c1` the Potency was inconclusive: 50.1 µM [inhibitor, partial curve, poor fit]. For `O=C1CCN(CC(O)COc2ccccc2)c2ccc(F)cc2CN1C1CC1` (stereo not drawn), the Potency was inconclusive: 31.6 µM [inhibitor, partial curve, poor fit]. With `CN(C)c1cccc(-c2cnc(NC(=O)c3ccncc3)c3c2CCO3)c1` the “activity change, negative = cytotoxicity” value was inactive: -25.2% [at 138 µM]. For `Cc1noc2c(NC(C)C)cc(-c3ccccc3)nc12`, the Potency was inconclusive: 100 µM [inhibitor, partial curve, poor fit]. With `O=C(c1ccccc1)N1CCCN(c2ccc3nnc(C4CC4)n3n2)CC1` the “activity change, negative = cytotoxicity” value was inactive: -14.3%. For `COC(=O)c1ccc2nc(CO[C@H]3CN(Cc4ccccc4)C[C@H]3F)[nH]c2c1`, the Potency was inconclusive: 89.1 µM [inhibitor, single point]. In the case of `O=C(c1ccc(N2CC3CC(C2)[C@H]2CCCC(=O)N2C3)nc1)N1CCN(c2ccc(Cl)cc2)CC1` (stereo partly drawn), the Potency is reported as inconclusive: 70.8 µM [inhibitor, single point]. For `Cc1cnc(CN2CC3(CCC2=O)CCN(C(=O)[C@H]2C[C@@H]4C=C[C@H]2C4)CC3)cn1`, the “activity change, negative = cytotoxicity” value was inactive: 3.24%. For `c1ccc(C(CCNc2ncncn2)c2ccco2)cc1` (stereo not drawn), the Potency was inconclusive: 89.1 µM [inhibitor, single point]. With `CCN1CCN(C(=O)c2cc(-c3ccc(C)cc3)cn2CC)CC1` the Potency was inconclusive: 44.7 µM [inhibitor, partial curve, poor fit]. With `CNC(=O)c1cc(C2CC2)nc2c1c(C1CCCN([S+](=O)([O-])c3ccccc3)C1)nn2C` (stereo not drawn) the Potency was inconclusive: 11.2 µM [inhibitor, full curve]. With `COc1ccc(OCC2CC3(CCCCC3)CN2S(=O)(=O)c2c(C)noc2C)cc1` (stereo not drawn) the “activity change, negative = cytotoxicity” value was inactive: -28.5%.
